Laboratory results published in PubChem BioAssay (NCI).
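These data come from cells grown in 96-well plates and exposed to compound for 48 hours at five concentrations. GI50 is the concentration that inhibits growth by half. TGI: concentration producing complete growth inhibition.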

Test system: NCI-H322M lung
Assay: inhibition of tumour cell growth, NCI panel, 48 h

Structure (SMILES) | TGI | GI50
COc1cc(CCCOC2OC(COC3OCC(O)C(O)C3O)C(O)C(O)C2O)cc2cc(-c3ccc4c(c3)OCO4)oc12 (centres undefined) | > 175 µM | 
CC1=C(C(=O)NNC(=O)CC#N)CC(C(=O)NNC(=O)CC#N)=C(C)N1 | > 100 µM | 
CN(C)CCNC(=O)Nc1c(C#N)[n+]([O-])c2cc(Cl)c(Cl)cc2[n+]1[O-] | > 100 µM | 31.9 µM
NC1=NC(=O)C(CC(=O)Nc2ccc([N+](=O)[O-])cc2[N+](=O)[O-])S1 (centres undefined) | > 100 µM | 
O=C(c1ccccc1)[C@H]1Nc2cnccc2C2c3ccccc3CC21 (some centres undefined) | > 100 µM | 
Clc1cc(Cl)c2c(Cl)cc(Cl)c3c2c1N=S=N3 | > 100 µM | 
CCOC(=O)Cc1nc(/C(C#N)=C/c2ccco2)[nH]c(=O)c1C#N | > 100 µM | 
C=CC(=O)Nc1cccc(Nc2nc(Nc3ccc(OCCOC)cc3)ncc2F)c1 | 11.1 µM | 0.911 µM
CC1=Nc2c(ccc3c2C(=O)c2ccccc2C3=O)NC(c2ccncc2)C1 (centres undefined) | > 100 µM | 
CCN(CCO)CCNc1ccc(C)c2sc3cc(Cl)ccc3c(=O)c12 | 3.14 µM | 1.5 µM
CCOP(=O)(OCC)c1cc(-c2ccccc2)ccc1N | > 100 µM | 
CNc1nc(NC2CCCC2)nc(Sc2ccc(OC)cc2)n1 | > 10 µM | > 10 µM
N#Cc1c(N)c(C(=O)O)nn(-c2cccc(C(F)(F)F)c2)c1=O | > 100 µM | 
O=C(N/N=C/c1ccc(Cl)cc1Cl)c1ccccc1Nc1cccc(C(F)(F)F)c1 | > 100 µM | 6.95 µM
Nc1ccc(SC23CC4CC(CC(C4)C2)C3)cc1 | > 100 µM | 
CNC(=O)c1cn(C[C@H](F)CCc2ccc(NC(=O)Cc3cc(OC4CC(F)(F)C4)cc(C)n3)nn2)nn1 | > 100 µM | 0.167 µM
Brc1ccc2c(c1)-c1nc3c(cc1CC2)CCc1ccc(Br)cc1-3 | > 100 µM | 
COc1ccc2c(c1)C=CC(C#N)N2C(=O)c1ccccc1 (centres undefined) | > 100 µM | 0.821 µM
Cc1ccsc1C(=S)Nc1ccc(Cl)c(C(=O)OC(C(C)C)C(C)C)c1 | > 100 µM | 
CCOC(=O)c1c(NC(=S)Nc2ccc(C)cc2)sc2c1CCN(C)C2 | > 100 µM | 
O=C1CCn2c([nH]c3cccc4cccc2c43)=N1 | > 100 µM | 
c1ccc(-c2ccc(N=NN3CCCC3)cc2)cc1 | > 100 µM | 
COc1ccc(-c2cc(-c3cc(Cl)ccc3Cl)nc3nc(=S)[nH]c(N)c23)cc1 | > 100 µM | 42.1 µM
O=C(CN=C(CN(c1ccccc1)c1ccccc1)Oc1c(Cl)cc(Cl)cc1Cl)n1cnc2ccccc21 | > 100 µM | 
Oc1ccc(Cc2ccccc2)c2cccnc12 | > 100 µM | 2.45 µM

Structure (SMILES) | TGI | GI50
CNC(=O)c1ccc(-c2cnc3ncc(Cc4ccc5ncccc5c4)n3n2)cc1F | > 100 µM | > 100 µM
NC(CCSCC(F)F)C(=O)O (centres undefined) | > 100 µM | 
O=c1c2ccccc2c2c3c1cccc3c1cccc3c(=O)c4ccccc4c2c31 | > 100 µM | 
c1cc[c]([Sn]([S]c2cccc3cccnc23)([c]2ccccc2)[c]2ccccc2)cc1 | 0.173 µM | 0.0487 µM
C[C@H]1CCC/C=C/[C@@H]2C[C@H](N)C[C@H]2[C@H](O)/C=C/C(=O)O1 | > 100 µM | > 100 µM
c1ccc([P+](Cc2csnn2)(c2ccccc2)c2ccccc2)cc1 | > 100 µM | 
Oc1c2c(c(O)c3ccccc13)=N[C@@H](c1ccccc1)[C@H](c1ccccc1)N=2 | > 100 µM | 
CCN(C(=O)N[C@H](C(=O)N[C@@H](C)C(=O)OC)C(C)C)c1ccccc1 | > 100 µM | 
COC(=O)[C@H]1C=C[C@H](OC2OC(COC(C)=O)C(OC(C)=O)C(OC(C)=O)C2OC(C)=O)n2c(=O)n(-c3ccccc3)c(=O)n21 (some centres undefined) | 32.4 µM | 
CC/C=C\C/C=C\C1CC(=O)NCCCNCCCCN1 (centres undefined) | > 100 µM | 
O=C1c2ccccc2-c2cccc3ccc(Cc4ccccc4)c1c23 | > 100 µM | 
COc1cc(/C=C\c2ccc(O)cc2)cc(OC)c1OC | > 100 µM | 
CS(=O)(=O)Nc1ccc(-c2ccc3c(NC(=O)C4CC4)n[nH]c3c2)cc1 | > 25 µM | > 21.4 µM
NS(=O)(=O)c1ccc(NC(=O)c2cccc3c(=O)c4ccccc4[nH]c23)cc1 | > 100 µM | 
CC1(C)OC(CCO)CN1C(=O)OCc1ccccc1 (centres undefined) | > 100 µM | 
COC(=O)c1sc2ncc3c(c2c1N)CC(C)CC3 (centres undefined) | > 100 µM | 
Cc1c(-c2nc(N)nc(C3CC3)c2C)nc(N)nc1C1CC1 | > 100 µM | 
CC(O)(C(=O)N(O)c1ccc(Cl)cc1)c1ccc(Cl)cc1 (centres undefined) | > 100 µM | 
N/C(CSCCSC/C(N)=N/O)=N\O | > 100 µM | 
CCOC(=O)c1csc(NC(=O)CCCC#N)n1 | > 100 µM | 
NS(=O)(=O)c1nnc(NSc2ccc([N+](=O)[O-])cc2)s1 | > 100 µM | 
Cc1cc2c(cc1Cl)SC(NNc1cnc3ccccc3n1)=NS2(=O)=O | > 100 µM | 
CCn1c(-c2nonc2N)nc2ccc(F)cc21 | > 25 µM | > 25 µM
CCOC(=O)C1=C(C)NC(=O)N([N+](=O)[O-])C1c1ccccc1C(F)(F)F (centres undefined) | > 100 µM | 
CCN(CC)C(=S)SS(=O)(=O)c1ccc(C)cc1 | > 100 µM | 
